In all, about 110,000 compounds were measured (“z-score”: median about -0.1, highest 2% from about 2 on). The list shows a part of the results. Calls of active or inactive are those of the source.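 Rule for the calls: active = z-score in the third read window above 3 or below -3; inactive = the rest.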
What follows are compounds tested against Metabotropic glutamate receptor 8 (Rattus norvegicus) (UniProt P70579) (assay: mGluR8 Gi/Go-coupled signaling modulation – cell-based, rat, thallium flux, HTS, primary screen (AID 488969)). Conditions: HEK293 rat mGluR8, GIRK (G protein-gated inwardly rectifying potassium channel) thallium flux, FluoZin2; at 10 µM; stronger effect = higher value; submaximal glutamate (EC20) added with thallium.
Chain of UniProt P70579 (P70579 whole entry, looked up): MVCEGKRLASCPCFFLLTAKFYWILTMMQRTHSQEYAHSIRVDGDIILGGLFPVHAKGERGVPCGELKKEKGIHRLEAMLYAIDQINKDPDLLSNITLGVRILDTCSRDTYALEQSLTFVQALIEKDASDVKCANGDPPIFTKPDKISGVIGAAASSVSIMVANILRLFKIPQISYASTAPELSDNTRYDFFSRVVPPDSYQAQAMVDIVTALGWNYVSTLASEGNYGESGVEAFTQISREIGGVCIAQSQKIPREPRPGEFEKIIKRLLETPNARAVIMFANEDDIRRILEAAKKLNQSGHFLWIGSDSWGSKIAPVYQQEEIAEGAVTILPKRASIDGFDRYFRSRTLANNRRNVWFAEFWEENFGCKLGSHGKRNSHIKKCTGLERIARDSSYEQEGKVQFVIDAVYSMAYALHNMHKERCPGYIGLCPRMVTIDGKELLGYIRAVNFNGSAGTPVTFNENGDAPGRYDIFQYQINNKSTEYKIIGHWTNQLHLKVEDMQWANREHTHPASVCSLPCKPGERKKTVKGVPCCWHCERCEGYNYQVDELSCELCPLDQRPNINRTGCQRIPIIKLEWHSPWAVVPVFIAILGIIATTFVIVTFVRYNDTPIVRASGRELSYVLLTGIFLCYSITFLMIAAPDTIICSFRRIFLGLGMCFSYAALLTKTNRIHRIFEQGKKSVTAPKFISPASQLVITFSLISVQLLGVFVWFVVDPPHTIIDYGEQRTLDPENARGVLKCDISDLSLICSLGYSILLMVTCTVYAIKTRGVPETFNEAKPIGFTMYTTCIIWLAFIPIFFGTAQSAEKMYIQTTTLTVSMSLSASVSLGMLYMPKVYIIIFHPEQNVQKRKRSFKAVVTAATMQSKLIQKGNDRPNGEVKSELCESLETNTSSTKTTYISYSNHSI

SMILES	z-score
Cc1nc(SCC(=O)Nn2c(-c3ccccc3)nc3ccccc3c2=O)n[nH]1	-0.472
COc1ccc(C2C(C(=O)c3ccco3)=C(O)C(=O)N2CCc2ccccc2)cc1OC (configuration not stated)	0.128
N/C(=N\OC(=O)CCc1ccccc1)c1cccc(Br)c1	-0.113
Cc1cc(C)c(S(=O)(=O)N2CCCOC2CNC(=O)C(=O)NCCCn2ccnc2)c(C)c1 (configuration not stated)	-0.405
Cc1ccc(OC(=O)c2ccccc2C(=O)OCC(F)(F)C(F)F)cc1	-0.0779
O=C(Nc1cccc(S(=O)(=O)c2cccc(NC(=O)C3CC3)c2)c1)C1CC1	-1.5
C=CCn1c(N)c(S(=O)(=O)c2cccs2)c2nc3ccccc3nc21	-2.7
CCN(CC)S(=O)(=O)c1ccc(C(=O)OCCN2C(=O)CCC2=O)cc1	-0.0758
COc1ccc(CC(=O)Nc2ccc(S(=O)(=O)Nc3ncccn3)cc2)cc1	-0.145
O=c1cc(N2CCN(Cc3ccccc3)CC2)c(-c2ccccc2)n[nH]1	-0.917
CCC1CCc2c(sc3nc(SCC(=O)NCc4ccco4)n(-c4ccccc4)c(=O)c23)C1 (configuration not stated)	1.09
COCCn1ccc(O)c(Cc2ccc(Cl)cc2)c1=O	-0.0874
Cn1nc(N)c2c(-c3ccc(Cl)cc3)c(C#N)c(N)nc21	0.0615
CCOc1c(Cl)cc(C(=O)Nc2ccccc2-c2ccccc2)cc1Cl	-0.121
CCN1CCc2c(sc(NC(=S)NC(=O)c3ccccc3)c2C#N)C1	-0.118
Cn1c(=O)oc2cc(S(=O)(=O)N3CCCC(C(=O)N4CC=C(c5ccccc5)CC4)C3)ccc21 (configuration not stated)	1.18
Cc1nn(Cc2ccc(C(=O)Nc3nc4c(C)cccc4s3)o2)c(C)c1Br	-0.909
COC(=O)c1ccc(C)c(NC(=O)c2c(-c3ccccc3)noc2C)c1	-0.204
COc1ccc(S(=O)(=O)N(CCc2ccccc2)CC(=O)N/N=C/c2ccc3c(c2)OCO3)cc1	-0.0021
Cc1ccc(NC(=O)c2cc(NC(=O)CCCC(=O)O)ccc2Cl)cc1Cl	-0.197
CCn1c(SCC(=O)C(C)(C)C)nnc1-c1ccccc1OC	-0.11
COc1ccc(N2CCN(C(CNC(=O)C3CCCCC3)c3cccnc3)CC2)cc1 (configuration not stated)	-0.423

SMILES	z-score
CC(C)CNC(=O)c1ccccc1NC(=O)CCSc1ccccc1	-0.204
Cc1ccc(C)c(OCC(=O)N2CCOCC2)c1	0.369
Cc1noc(C)c1S(=O)(=O)N1CCCCC1	-0.647
O=C(C1Cc2ccccc2CN1S(=O)(=O)c1ccc(F)cc1)N1CCCCC1 (configuration not stated)	-0.0244
O=c1c2cnn(-c3ccc(F)cc3)c2ncn1Cc1ccccn1	-0.33
Cc1ccc(C(=O)n2nc(-c3ccco3)nc2N)cc1	-0.149
CCn1c(=O)cc(SCC(=O)Nc2cc(OC)c(OC)c(OC)c2)c2ccccc21	-0.48
CCn1cc([N+](=O)[O-])c(C(=O)Nc2ccn(Cc3ccccc3)n2)n1	-0.269
Cc1ccc(C2=[N+]([O-])C3(CCCCC3=O)N(O)C2(C)C)cc1 (configuration not stated)	0.0871
Cc1ccc(-c2nnn(CC(=O)N(Cc3ccco3)C(C(=O)NC3CCCC3)c3cccs3)n2)o1 (configuration not stated)	-0.195
COCc1cc(=O)[nH]c(/N=C(\N)Nc2cccc(C)c2)n1	-0.000236
CCc1ccc(/C(C)=N\Nc2ccc([N+](=O)[O-])cc2)cc1	-0.239
O=C(NCN1C(=O)C2C3C=CC(C3)C2C1=O)OC1CCCCC1 (configuration not stated)	-0.093
COC(=O)C1=C(CSCc2ccccc2)NC(=O)NC1c1cc(C)ccc1C (configuration not stated)	-1.82
COc1ccc(C(C)NC(=O)c2ccc(Br)cc2)cc1OC (configuration not stated)	-0.247
Cc1ccc(S(=O)(=O)NC(=O)NCCCCNC(=O)NS(=O)(=O)c2ccc(C)cc2)cc1	-0.183
CN(C(=O)c1cccc(C#N)c1)c1nnc(-c2ccccn2)s1	0.436
C/C(=N/OCC(=O)Nc1ccc(C)cc1C)c1cccs1	-0.599
O=c1[nH][nH]c(-c2ccccc2O)c1C(C[N+](=O)[O-])c1cccc(Cl)c1 (configuration not stated)	0.016
CC(C)c1ccc2c(c1)C1Cc3ccccc3C1N2 (configuration not stated)	-0.22
Cc1cc(=O)n2nc(-c3ccc(C(F)(F)F)cc3)sc2n1	-0.211
C=CCNC(=O)C1CC(=O)N(c2ccc(OCC(=O)Nc3ccc(OC)cc3)cc2)C1 (configuration not stated)	-0.466

SMILES	z-score
CCOc1ccc(NC(=O)N(CCN2CCOCC2)Cc2ccc3c(c2)CCCN3CC)cc1	-0.435
CCOc1ccc(S(=O)(=O)Nc2ccccn2)c2ccccc12	-0.297
CN(Cc1ccccc1)C(=O)c1cc2ccccc2o1	-0.372
O=C(Cn1ncc2c1-c1ccccc1OC2)N1CCc2ccccc21	0.541
Cn1c(=O)c2c(SCc3ccccn3)nc(CC(C)(C)C)nc2n(C)c1=O	-0.691
NC(=O)Cn1c(=O)oc2ccccc21	-0.209
COc1cccc(/C=N/n2c(-c3ccco3)nc3ccccc3c2=O)c1	0.151
O=C(NCCN1C(=O)S/C(=C\c2ccc(OC(F)F)cc2)C1=O)[C@@H]1CCCN1C(=O)c1cccs1	-0.589
O=C(CS(=O)(=O)Cc1ccccc1)Nc1ccc(S(=O)(=O)N2CCCCCC2)cc1	0.185
CCN(CC)S(=O)(=O)c1ccc(NC(=O)c2ccc(CN3CCOCC3)cc2)cc1	-0.269
COc1ccc2[nH]c(=O)c(COC(=O)c3ccco3)cc2c1	-0.171
CC(C)C[C@H](NC(=O)OC(C)(C)C)C(=O)N1CCC(C(=O)N[C@@H](Cc2ccccc2)C(=O)O)CC1	0.348
COC(=O)c1cc(NC(=O)CC2C(=O)NCCN2C(=O)c2ccccc2)cc(C(=O)OC)c1 (configuration not stated)	0.0785
CC1(C)Nc2ccc(O)cc2-c2c1ssc2=S	-0.0445
COc1ccc(C(=O)Nc2cccc3c2C(=O)NC3=O)cc1S(=O)(=O)N1CCOCC1	-0.063
O=C(NN=C1CCCCC1)NC1CCCCC1	0.05
Cc1csc(NC(=O)CSc2nnc(-c3ccc(S(=O)(=O)N4CCCC4)cc3)o2)n1	-0.38
NC(=O)COC(=O)c1ccc(Cl)c(S(=O)(=O)N(Cc2ccccc2)c2ccc(Cl)cc2)c1	-0.251
CCCc1cc(=O)oc2cc(OCC(=O)Nc3ccc4c(c3)OCCO4)ccc12	-0.0823
COc1ccc(C(=O)Cn2nnc(-c3ccccc3F)n2)cc1	-0.251
CCOC(=O)C(CC)n1cnc2c(nnn2-c2ccc(OC)cc2)c1=O (configuration not stated)	active: 4.43
CC(C)C(NS(=O)(=O)c1ccc2c(c1)OCCCO2)C(=O)O (configuration not stated)	-0.152

SMILES	z-score
CCOC(=O)c1c(NC(=O)c2nn(CC)cc2Br)c(C#N)cn1-c1ccccc1	-1.86
N#CCCN(C(=O)Nc1ccccc1)c1ccccc1	-0.0757
CCS(=O)(=O)n1nc(-c2ccc(OC)cc2)nc1SC	-0.342
Cc1ccc(S(=O)(=O)Cc2c(C)noc2C)cc1	-0.0187
CCCOc1cccc(OCCSc2nc(C)cc(=O)[nH]2)c1	active: -3.02
COc1ccccc1C(=O)NC1CCCCCCC1	-0.217
CCc1cccc(NC(=O)Cn2cc3c(n2)CCCC3)c1	0.22
Cc1ccc(C(c2nnnn2CCc2ccccc2)N2CCSCC2)cc1 (configuration not stated)	-0.216
COc1ccc2nc(NC(=O)CSc3nc(SC)ns3)sc2c1	0.0066
CC1=C(C)CC(C(=O)NNC(=O)c2csc(C)c2C)C(C(=O)O)C1 (configuration not stated)	0.192
CN1CCN(c2ncnc3c2sc2nc(N4CCOCC4)c4c(c23)CCC4)CC1	-0.0846
COc1ccccc1C(=O)NCCCNc1ccc([N+](=O)[O-])cc1	-0.13
COC(=O)CN1C(=O)Nc2ccc(Br)cc2C1c1ccccc1Cl (configuration not stated)	-0.585
O=C(O)CCN1C(=O)C2CCCCC2C1=O (configuration not stated)	1.58
COc1cc(/C=C/C(=O)c2ccc(NS(=O)(=O)c3ccc(C)cc3)cc2)cc(OC)c1O	-0.309
COC(=O)Nc1ccc(=O)n(Cc2c(Cl)cccc2Cl)c1	0.00945
CC1=NN(C(=O)Cn2nc([N+](=O)[O-])c(Br)c2C)C(O)(C(F)(F)F)C1 (configuration not stated)	0.658
Cc1ccc2cc(CN(CCN3CCCC3)C(=O)Nc3ccccc3)c(=O)[nH]c2c1C	-0.236
CC(=O)c1ccc(NC(=O)Nc2ccc(Cl)cc2)cc1	-1.17
Cc1ccc(CNC(=O)c2ccc(COc3ccccc3)cc2)cc1	0.578
C(=C\c1ccccc1)/C=N/Nc1nc2ccccc2[nH]1	-0.7
CC(NC(=O)CCOc1ccccc1)c1ccccc1 (configuration not stated)	-0.161

SMILES	z-score
CC(O)c1nc2ccc(Cc3ccc4nc(C(C)O)[nH]c4c3)cc2[nH]1 (configuration not stated)	0.142
O=C1OCCC1Sc1nnc(-c2ccc(O)cc2)o1 (configuration not stated)	0.567
COc1cc2oc3ccccc3c2cc1N(CC(=O)N1CCCCC1)S(=O)(=O)c1ccc(C)cc1	0.516
Cc1cc(C)n(C(=O)c2ccc([N+](=O)[O-])c(Cl)c2)n1	0.00234
COc1ccc(CCN(C(=O)c2ccccc2)C2=CC3CCC(C2)N3C)cc1OC (configuration not stated)	0.0177
CCOC(=O)c1ccc(NC(=O)CSc2nccn2C)cc1	0.155
CN(Cc1cccs1)C(=O)Cc1c[nH]c2ccccc12	0.00967
Cc1nc2c(cnn2-c2ccccc2Cl)c(=O)n1-c1ccc(C(C)C)cc1	-1.26
CN(C)c1nc(N/N=C\c2ccc(Cl)c([N+](=O)[O-])c2)nc(Nc2ccc(F)cc2)n1	0.137
CCOC(=O)CSc1nnc(NC(=O)c2cccc([N+](=O)[O-])c2)s1	0.00484
CC(C)Cn1cc(C(=O)NCCCOC(C)C)c2c3ccccc3n(C)c2c1=O	-0.486
CCn1c(SCC(=O)Nc2cc(C)on2)nc2c(c1=O)SC(C)C2 (configuration not stated)	-0.77
CC(C)CC(=O)NC(c1ccccc1Cl)c1c(O)ccc2ccccc12 (configuration not stated)	-0.161
CCN1CCN(C(=O)CCNC(=O)Cn2ccc3ccccc3c2=O)CC1	0.0922
Cc1ccc(-c2csc(N(Cc3ccccc3)C(=O)COc3ccccc3)n2)cc1	-0.0539
Cc1ccc(N2CC(C(=O)OCc3ccccc3F)CC2=O)cc1 (configuration not stated)	-0.6
Cc1cc(C)c(C(=O)CSc2nc(C)cc(C)c2C(N)=O)c(C)c1	0.0493
Cc1ccc(S(=O)(=O)Nc2ccc(NC(=O)Nc3ccc(F)cc3F)cc2)cc1	-0.139
COCCn1nnnc1CN1CCC(NC(=O)c2ccc(Br)cc2)CC1	0.559

From PubChem BioAssay AID488969 (Vanderbilt High Throughput Screening Facility, 2010)
